Measurements published in the RNAGym collection of RNA variant scans (doi:10.7554/elife.90254).
The source gives no read counts; variants with many changes may rest on few reads.

B1: LINE1-mini (parent)
chain: GGCAGAGCUCAACACAGCGUGGCAAAGUGGCUGUGGCUAGACUGCC

Variants of: B1
Assay: self-cleavage, relative activity (ratio to wild type); higher = more cleavage; in vitro, sequencing; the parent is a self-cleaving ribozyme

| Variant | self-cleavage |
| --- | --- |
| G2C A4C A25G C45A | 0.02 |
| G21U G33C G40C C45A | 0.01 |
| A4C A14U G19U C31A G33C A41G | 0.03 |
| A4U C10A A12C U28A | 0.03 |
| A6U G27A C37U | 0.09 |
| U9C C13A C37U | 0.02 |
| G5A C10U C18A U32G C37U | 0.02 |
| C10A C15G U20C G27U C31G | 0.06 |
| C13G A16C G36A | 0.01 |
| U20C G22A C23G G30U U43C | 0.04 |
| U43G G44A C46A | 0.02 |
| G2A G5U A26C | 0.58 |
| C3G A4G G21U G29U A41C | 0.13 |
| G21U C23A G33U G40C A41U | 0.06 |
| C10A A11C G22U A39U | 0.01 |
| C8G A12U C42U | 0.02 |
| G5U C10G A24U A39G C42U U43A | 0.02 |
| C10U G21C G27U A39U | 0.33 |
| A26C U32A C46U | 0.08 |
| C13U A14C G22A U32C C42G | 0.03 |
| C10G A12G C15A A16U G19U C31G G44C | 0 |
| C13A A39C C42G | 0.03 |
| U9G G19C G40U | 0.03 |
| G17U G22A G30U | 0.14 |

| Variant | self-cleavage |
| --- | --- |
| C3G U9C A26U G29C | 0.03 |
| G1C A12G A26U C37U G40A | 0.07 |
| G27C G29A G36C G40C | 0.18 |
| A4C C31U G44C | 0 |
| G1U U9A A39G | 0 |
| C10U C13G U20C A25U G30U G35C U38A | 0.02 |
| A11G U20C G29A G33U G36A U38C | 0.02 |
| G7A C31U C37U | 0.04 |
| C3U A14G C31G | 0.05 |
| A4C A14U G33U | 0.23 |
| G29C U34G U43C | 0.02 |
| C10A G22C U28G | 0.01 |
| G2C C10A A11U G21A | 0.01 |
| G1A A11C A12G G19A U28C G36C | 0.01 |
| G1A C8A A39G | 1.18 |
| G1U A4U C15U G30A | 0.06 |
| G17C U28G G36U | 0.03 |
| G5C A24C G33A | 0.01 |
| U34C U43C C45A | 0.15 |
| U20G G21U G33U | 0.06 |
| C8U G19A C31A U32G G33A G44U | 1 |
| G22U A25U C37U | 0.14 |
| G1U A12G A25C U38A | 0.05 |
| G1C G7C C8U A11U C45G | 0.01 |

| Variant | self-cleavage |
| --- | --- |
| C8A A26U U28G U34C | 0.01 |
| C23U A26U C31U | 0.21 |
| G5C A14G U34G | 0.07 |
| G5A A14U G40C U43A C45A | 0.04 |
| G21U C23A G40U | 0.05 |
| C8U A12C C46G | 0.06 |
| C3U A4U C15U G19C G44C | 0.09 |
| A11G A14C G36U A39G | 0 |
| A11C G29C U32A C37A | 0.03 |
| A4C A12G G29U G44A C45A | 0.04 |
| A11G G19C G27U | 0.01 |
| C8A A14G U28C C31G G33U | 0.05 |
| G1U A4U C13A G19A G33U C42G | 0.07 |
| C10U G19U G33A | 0.02 |
| A4C G5U A14G U28G G29A C31U G44U | 0 |
| U9C C13U G22U U34C C45A | 0.02 |
| G5A C13U G19A A26U G30A C42U C45G | 0.03 |
| C23U G27C C46U | 0.58 |
| C15U A16U G19U A24G C45G | 0.05 |
| U20C G35U C42G | 0.03 |
| G2U C8G G36C | 0.03 |
| C18A A25G G29A A39G G40U C42U G44U | 0.03 |
| G5A G7C A12C G21U | 0.37 |
| C10G C23G U28A U32A U38A | 0.01 |

| Variant | self-cleavage |
| --- | --- |
| G17A G22A G29C | 0.31 |
| A12G C18A U43A | 0.01 |
| A11C C13G A39G | 0.02 |
| G19U G33C A39U | 0.02 |
| A11U U38C C42G G44A | 0 |
| G1C C42A U43G | 0.01 |
| G2C C8A C18U | 0.16 |
| G2C G21U U32A | 0.09 |
| C8U C10G C31A | 0.01 |
| A25U U32C A39C C46A | 0.04 |
| C3A C8A C10A A14C A16C G33U C46G | 0.03 |
| C13U A24G C45A | 0.03 |
| C8A A11U C13A G35U C37G U43C | 0.04 |
| A4G C10U C13A A14C U28G G40U | 0.03 |
| C23G G35C C45G | 0.05 |
| G2C G5C G7U C42U | 0.04 |
| G17A G30A G40A C45U | 0.05 |
| C8A A12G C15U | 0.07 |
| G1U U20G A24U G36U | 0.04 |
| G7C G30U C31G | 0.12 |
| G7U G21U C45U | 0.04 |
| G5A A16U G30C | 0.06 |
| G17C C23A A24G C37U | 0.14 |
| A11G G17U U43G | 0.03 |

| Variant | self-cleavage |
| --- | --- |
| C15A U34A C46A | 0.01 |
| A11U A12U G29C | 0.03 |
| A14G C18U G33A C42A | 0.06 |
| C10A A25G G40A C42A C45G | 0.01 |
| C8U G22A G27C G36C C46A | 0.02 |
| C3G A6G U9G C15U C18U G29C G35U U38G G44A | 0 |
| G5A A6U G22A C42A | 0.04 |
| G33A U34A C42U | 0.07 |
| A6C G29A U34C G44U | 0.03 |
| G5U C13U G22A G27A G36U A39C C42A | 0.03 |
| G1U C3A C42U C46U | 1.13 |
| C8A G19C G21A | 0.06 |
| U20C A24U U38G | 0.06 |
| C3U G5A A6C A11G G30C U34C | 0.04 |
| A12G G21U G22A | 0.02 |
| U9C C15G A25G | 0.08 |
| A6U A14G C15A A24U C42U | 0.08 |
| A6C G22C A26U G27U G33U A39U C46G | 0.05 |
| U9A A12U C13A U28G G30C G35C | 0.14 |
| G7U U9G C18A | 0.02 |
| G21A G27C C31U | 0.05 |
| U9C G40U C46A | 0 |
| G7U C37G A41G | 0.02 |
| C3G A39G G40A U43G C45A | 0.11 |

| Variant | self-cleavage |
| --- | --- |
| G2C G7U C10G | 0.05 |
| G36U G40U C42A | 0.05 |
| G7C G36A A41G | 0.04 |
| A4C C8U A16G C23U A25C U28A G40A G44C | 0.07 |
| C3U A6C A11C C15G A24G U32A | 0.01 |
| C13A C18U G21C | 0.05 |
| G21U U43C C45U | 0.08 |
| A6C A11U G17A C37U G40U | 0.05 |
| C3U A6G G44U | 0.12 |
| A16C A24G G27A | 0.81 |
| A4C A11U C13A C31A | 0.03 |
| C8G C10U U20C | 0.07 |
| A12C G17C G19C G36U | 0.05 |
| G2U G7U C15A G44C | 0.11 |
| C8A U34C C42U C46G | 0.09 |
| C10G A26C G27U | 0.03 |
| G7C A16U G44C | 0.03 |
| G2A C15U G19A G27U G35C C42U | 0.05 |
| A4G A6G G30A G36U A39U | 0.01 |
| C3U G30A C31A | 0.06 |
| C23G U32C U34A | 0.04 |
| G2A A4U C10A U43C C46U | 0.1 |
| G2U C18A G21C C23U | 0.07 |
| G7A A12U C46G | 0.03 |

| Variant | self-cleavage |
| --- | --- |
| C15U C23A G29C | 1.67 |
| G5A U20C A24G G27U | 0.15 |
| G2U C10U A24G U32C | 0.02 |
| G5C C8U C23A G27C | 0.02 |
| G1U A6G C8A C18A G33U | 0.09 |
| C3G C15A C18A | 0.02 |
| G1A C8G G30A C31U A41U | 0.04 |
| C8A U9C A26C G33C | 0.05 |
| C23G C31U U32G C46A | 0.02 |
| C13G C15U G29U | 0.18 |
| A25C G30C G44A | 0.1 |
| G19C G21U U28C G35C C42U | 0.01 |
| G1C U9G C18U | 0.01 |
| G2A G30U G40C | 0.12 |
| G2C G22U C23A C42U | 0 |
| A14U C15A C18A C31G A39C | 0.02 |
| C3U A11G G33U C42A | 0.01 |
| A11U U20C U28C | 0.07 |
| U34G G35U C42A U43G C46U | 0 |
| G2U G22U C45A | 0.24 |
| G1A A6C C31U | 0.14 |
| U9A G17U G27C | 0.05 |
| A12G C13U A24C | 0.03 |
